Paper PMC5802837, “Lymphocyte-specific protein 1 regulates mechanosensory oscillation of podosomes and actin isoform-based actomyosin symmetry breaking” (Nature Communications, 2018)
No constants are given. Whether binding was seen depends on the method and setting. In cells and extracts the contact can be indirect. Some entries that bind do so weakly or less than the wild type.

The chains behind the UniProt entries cited, without tags or fusion partners.
UniProt P35579: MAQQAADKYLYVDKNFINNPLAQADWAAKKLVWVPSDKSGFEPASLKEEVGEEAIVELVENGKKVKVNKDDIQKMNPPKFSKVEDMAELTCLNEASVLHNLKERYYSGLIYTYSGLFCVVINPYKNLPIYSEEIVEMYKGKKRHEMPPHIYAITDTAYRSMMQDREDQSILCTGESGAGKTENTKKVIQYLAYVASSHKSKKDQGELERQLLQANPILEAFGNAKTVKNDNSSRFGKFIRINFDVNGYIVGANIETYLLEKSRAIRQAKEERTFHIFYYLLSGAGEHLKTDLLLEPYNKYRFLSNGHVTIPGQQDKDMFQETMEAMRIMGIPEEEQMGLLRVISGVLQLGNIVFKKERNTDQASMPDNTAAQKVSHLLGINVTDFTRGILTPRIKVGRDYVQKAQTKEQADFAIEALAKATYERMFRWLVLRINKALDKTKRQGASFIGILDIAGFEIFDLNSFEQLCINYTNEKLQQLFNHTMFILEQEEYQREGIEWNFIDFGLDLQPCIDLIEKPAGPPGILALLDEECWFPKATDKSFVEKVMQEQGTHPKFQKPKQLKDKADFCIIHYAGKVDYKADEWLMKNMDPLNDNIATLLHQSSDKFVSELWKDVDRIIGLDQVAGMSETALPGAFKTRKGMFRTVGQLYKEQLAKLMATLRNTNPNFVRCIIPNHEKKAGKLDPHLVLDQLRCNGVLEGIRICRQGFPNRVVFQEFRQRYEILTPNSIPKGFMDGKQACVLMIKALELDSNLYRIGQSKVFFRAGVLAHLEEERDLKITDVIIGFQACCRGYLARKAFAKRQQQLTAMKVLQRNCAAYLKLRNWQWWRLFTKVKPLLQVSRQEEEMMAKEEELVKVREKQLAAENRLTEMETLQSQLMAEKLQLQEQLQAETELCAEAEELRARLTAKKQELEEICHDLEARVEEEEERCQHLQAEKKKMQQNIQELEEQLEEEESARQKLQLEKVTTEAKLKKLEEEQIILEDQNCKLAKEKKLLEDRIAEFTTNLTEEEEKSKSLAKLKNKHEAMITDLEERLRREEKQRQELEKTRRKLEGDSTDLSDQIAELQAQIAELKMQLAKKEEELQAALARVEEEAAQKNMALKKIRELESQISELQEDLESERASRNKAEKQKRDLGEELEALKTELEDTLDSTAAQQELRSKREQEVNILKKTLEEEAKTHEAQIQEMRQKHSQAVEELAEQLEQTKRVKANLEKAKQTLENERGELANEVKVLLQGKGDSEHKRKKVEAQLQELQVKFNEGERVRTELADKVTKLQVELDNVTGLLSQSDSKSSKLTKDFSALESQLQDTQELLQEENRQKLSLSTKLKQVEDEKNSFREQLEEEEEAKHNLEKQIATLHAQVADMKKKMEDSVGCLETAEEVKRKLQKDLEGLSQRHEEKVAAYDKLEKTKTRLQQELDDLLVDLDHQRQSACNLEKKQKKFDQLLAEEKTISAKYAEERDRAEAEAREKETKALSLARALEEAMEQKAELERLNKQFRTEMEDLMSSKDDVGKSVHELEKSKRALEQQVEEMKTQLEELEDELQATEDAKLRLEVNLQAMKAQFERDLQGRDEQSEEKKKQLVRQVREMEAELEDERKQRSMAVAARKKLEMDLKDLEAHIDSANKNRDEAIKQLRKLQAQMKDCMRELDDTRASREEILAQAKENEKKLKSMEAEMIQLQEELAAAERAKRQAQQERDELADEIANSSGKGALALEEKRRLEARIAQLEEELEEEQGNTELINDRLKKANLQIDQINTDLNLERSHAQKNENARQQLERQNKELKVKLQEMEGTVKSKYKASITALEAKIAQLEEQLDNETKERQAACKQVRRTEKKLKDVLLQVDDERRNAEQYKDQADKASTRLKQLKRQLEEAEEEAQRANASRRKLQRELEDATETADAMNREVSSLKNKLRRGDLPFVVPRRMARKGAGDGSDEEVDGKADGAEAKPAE
UniProt P62136: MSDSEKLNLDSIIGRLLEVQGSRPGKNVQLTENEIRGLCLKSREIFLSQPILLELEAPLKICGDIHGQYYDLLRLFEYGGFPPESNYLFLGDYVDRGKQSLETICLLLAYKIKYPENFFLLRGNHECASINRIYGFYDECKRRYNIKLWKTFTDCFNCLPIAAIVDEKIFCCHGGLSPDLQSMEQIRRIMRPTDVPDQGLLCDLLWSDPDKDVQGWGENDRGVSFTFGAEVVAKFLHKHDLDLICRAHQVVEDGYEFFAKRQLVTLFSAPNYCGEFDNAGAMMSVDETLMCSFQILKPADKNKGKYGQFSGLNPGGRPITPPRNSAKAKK
UniProt P67775: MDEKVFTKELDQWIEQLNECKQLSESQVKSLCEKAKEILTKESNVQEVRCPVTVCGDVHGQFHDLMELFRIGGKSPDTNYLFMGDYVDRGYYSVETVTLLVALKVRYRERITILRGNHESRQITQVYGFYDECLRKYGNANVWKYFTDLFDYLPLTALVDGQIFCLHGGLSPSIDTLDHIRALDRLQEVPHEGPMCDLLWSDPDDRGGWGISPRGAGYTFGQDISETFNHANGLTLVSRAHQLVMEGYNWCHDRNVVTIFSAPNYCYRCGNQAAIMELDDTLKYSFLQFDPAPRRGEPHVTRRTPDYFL
UniProt Q15746: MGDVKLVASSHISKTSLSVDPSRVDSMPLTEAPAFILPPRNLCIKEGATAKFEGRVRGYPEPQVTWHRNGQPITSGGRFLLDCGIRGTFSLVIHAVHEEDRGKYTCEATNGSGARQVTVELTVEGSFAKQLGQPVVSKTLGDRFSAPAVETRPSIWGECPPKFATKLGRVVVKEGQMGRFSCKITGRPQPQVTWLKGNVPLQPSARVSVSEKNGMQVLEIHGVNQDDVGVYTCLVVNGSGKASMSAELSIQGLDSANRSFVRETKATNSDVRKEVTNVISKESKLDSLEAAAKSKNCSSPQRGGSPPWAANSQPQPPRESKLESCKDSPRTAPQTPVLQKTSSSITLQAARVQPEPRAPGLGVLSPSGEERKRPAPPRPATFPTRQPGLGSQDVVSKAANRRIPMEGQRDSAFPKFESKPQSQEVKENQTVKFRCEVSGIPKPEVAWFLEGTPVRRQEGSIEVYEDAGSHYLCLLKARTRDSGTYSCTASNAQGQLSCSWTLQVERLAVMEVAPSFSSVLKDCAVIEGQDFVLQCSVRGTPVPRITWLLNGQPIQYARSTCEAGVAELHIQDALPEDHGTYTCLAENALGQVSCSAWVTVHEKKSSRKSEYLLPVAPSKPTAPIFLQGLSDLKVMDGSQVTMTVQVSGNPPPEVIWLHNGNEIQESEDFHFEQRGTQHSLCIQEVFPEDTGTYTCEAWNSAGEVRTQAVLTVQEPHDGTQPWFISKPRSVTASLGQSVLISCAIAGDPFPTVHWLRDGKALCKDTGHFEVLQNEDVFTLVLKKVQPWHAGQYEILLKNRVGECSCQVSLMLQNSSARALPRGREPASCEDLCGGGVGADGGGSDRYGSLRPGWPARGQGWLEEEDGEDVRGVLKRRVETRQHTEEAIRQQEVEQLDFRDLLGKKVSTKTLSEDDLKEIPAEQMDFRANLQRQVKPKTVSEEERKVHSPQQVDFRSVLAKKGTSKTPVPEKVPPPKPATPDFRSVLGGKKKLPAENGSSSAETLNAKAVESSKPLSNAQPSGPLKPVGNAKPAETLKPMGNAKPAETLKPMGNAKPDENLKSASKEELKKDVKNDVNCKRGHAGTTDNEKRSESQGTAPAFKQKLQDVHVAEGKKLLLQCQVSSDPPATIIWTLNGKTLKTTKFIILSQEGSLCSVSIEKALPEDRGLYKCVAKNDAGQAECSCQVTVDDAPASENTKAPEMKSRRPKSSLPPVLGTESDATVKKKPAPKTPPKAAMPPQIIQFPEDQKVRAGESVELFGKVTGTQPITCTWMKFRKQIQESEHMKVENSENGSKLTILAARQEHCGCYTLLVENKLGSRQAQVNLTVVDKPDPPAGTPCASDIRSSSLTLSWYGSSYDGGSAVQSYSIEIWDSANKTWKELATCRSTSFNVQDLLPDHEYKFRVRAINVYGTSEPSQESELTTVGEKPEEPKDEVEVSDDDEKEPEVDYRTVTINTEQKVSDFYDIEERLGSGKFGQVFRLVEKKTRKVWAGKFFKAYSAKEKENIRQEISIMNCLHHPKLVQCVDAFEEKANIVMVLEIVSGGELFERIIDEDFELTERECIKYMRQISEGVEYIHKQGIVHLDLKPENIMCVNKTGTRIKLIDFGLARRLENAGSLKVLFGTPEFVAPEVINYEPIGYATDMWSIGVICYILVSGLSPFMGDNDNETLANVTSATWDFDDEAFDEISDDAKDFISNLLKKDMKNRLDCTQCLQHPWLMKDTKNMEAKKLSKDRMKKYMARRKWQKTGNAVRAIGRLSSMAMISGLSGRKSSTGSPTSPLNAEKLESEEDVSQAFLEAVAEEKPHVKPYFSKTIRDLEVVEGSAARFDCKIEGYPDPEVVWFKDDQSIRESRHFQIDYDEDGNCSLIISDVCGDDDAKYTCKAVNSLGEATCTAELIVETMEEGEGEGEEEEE
UniProt O75116: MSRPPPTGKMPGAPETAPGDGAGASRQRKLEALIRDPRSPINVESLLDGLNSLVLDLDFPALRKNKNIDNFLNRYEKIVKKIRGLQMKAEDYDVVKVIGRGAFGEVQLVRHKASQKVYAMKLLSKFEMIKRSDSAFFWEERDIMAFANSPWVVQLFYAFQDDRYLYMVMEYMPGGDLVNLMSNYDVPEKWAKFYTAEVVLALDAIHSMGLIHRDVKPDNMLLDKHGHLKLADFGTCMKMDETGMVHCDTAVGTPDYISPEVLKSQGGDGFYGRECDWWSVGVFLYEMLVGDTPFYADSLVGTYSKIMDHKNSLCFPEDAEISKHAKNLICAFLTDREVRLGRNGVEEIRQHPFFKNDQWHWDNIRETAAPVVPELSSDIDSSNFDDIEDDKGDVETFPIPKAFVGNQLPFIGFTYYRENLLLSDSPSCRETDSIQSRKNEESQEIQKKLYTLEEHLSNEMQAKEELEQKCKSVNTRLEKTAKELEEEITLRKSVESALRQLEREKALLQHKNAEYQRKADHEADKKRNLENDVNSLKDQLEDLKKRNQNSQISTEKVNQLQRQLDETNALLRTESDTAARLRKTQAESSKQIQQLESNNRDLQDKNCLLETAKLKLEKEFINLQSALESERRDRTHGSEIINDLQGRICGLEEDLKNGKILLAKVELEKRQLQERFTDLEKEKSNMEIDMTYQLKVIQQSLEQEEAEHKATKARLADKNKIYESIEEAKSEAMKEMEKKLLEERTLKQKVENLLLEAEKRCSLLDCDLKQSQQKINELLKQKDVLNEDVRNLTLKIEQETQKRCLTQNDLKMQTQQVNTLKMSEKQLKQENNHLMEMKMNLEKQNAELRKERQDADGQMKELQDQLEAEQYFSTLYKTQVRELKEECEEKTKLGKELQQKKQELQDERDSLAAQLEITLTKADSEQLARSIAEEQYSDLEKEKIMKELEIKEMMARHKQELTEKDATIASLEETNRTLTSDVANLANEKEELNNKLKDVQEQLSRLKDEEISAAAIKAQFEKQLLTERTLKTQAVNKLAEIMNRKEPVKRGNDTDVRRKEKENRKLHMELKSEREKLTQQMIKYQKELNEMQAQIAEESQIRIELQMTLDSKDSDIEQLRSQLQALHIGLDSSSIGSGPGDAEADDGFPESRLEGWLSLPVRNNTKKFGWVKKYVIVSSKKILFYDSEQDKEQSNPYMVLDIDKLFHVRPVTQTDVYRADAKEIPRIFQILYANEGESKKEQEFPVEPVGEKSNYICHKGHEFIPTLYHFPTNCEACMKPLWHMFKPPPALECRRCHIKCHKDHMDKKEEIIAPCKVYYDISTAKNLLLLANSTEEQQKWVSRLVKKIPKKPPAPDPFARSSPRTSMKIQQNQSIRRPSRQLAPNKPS
UniProt P61586: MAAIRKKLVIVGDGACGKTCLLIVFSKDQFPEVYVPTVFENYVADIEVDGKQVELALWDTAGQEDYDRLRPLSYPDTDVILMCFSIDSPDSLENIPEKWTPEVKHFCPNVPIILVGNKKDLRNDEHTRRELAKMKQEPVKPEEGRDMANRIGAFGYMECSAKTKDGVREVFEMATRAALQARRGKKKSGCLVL

Columns and labels:
[1] = target: myosin IIA, endogenous (human (endogenous in primary macrophages)) (UniProt P35579); test: co-IP; immunoprecipitation of endogenous LSP1 or myosin IIA from macrophage lysates (500 mM NaCl, 2% Triton X-100, 50 mM Tris-HCl pH 8.0), µMACS Protein A/G Microbeads, washes with RIPA and high-salt RIPA; control IgG; western blot
[2] = target: lymphocyte-specific protein 1 (LSP1), endogenous (human (endogenous in primary macrophages)) (UniProt P33241); test: as above
[3] = target: GFP-fused full length LSP1 (human) (UniProt P33241); test: co-IP; anti-GFP immunoprecipitation (µMACS anti-GFP Microbeads) from lysates of macrophages expressing GFP-fused constructs (500 mM NaCl, 2% Triton X-100, 50 mM Tris-HCl pH 8.0), washes with RIPA and high-salt RIPA; GFP alone as control; western blot of endogenous partners, densitometry

Substance	binding [1]	binding [2]	binding [3]
protein phosphatase (PP) 1, endogenous (from UniProt P62136 1-330) (enzyme)	no binding	no binding	–
protein phosphatase (PP) 2, endogenous (from UniProt P67775 1-309) (enzyme)	no binding	no binding	–

Second part, the substance after the results:

binding [1]	binding [2]	binding [3]	Substance
binds	binds	binds	long form of myosin light chain kinase (L-MLCK), endogenous (from UniProt Q15746 1-1914) (enzyme)
no binding	no binding	–	Rho kinase (ROCK) 2, endogenous (from UniProt O75116 1-1388) (enzyme)
–	no binding	–	RhoA, endogenous (from UniProt P61586 1-193)
